Measurements reported in the supplement of paper PMC3334620.
Whole data set: some 33,000 sequences, median “E-score (-0.5 to 0.5)” near -0.035, cut for the highest 2% near 0.35. Some of the results follow.

Molecular target: T1, Pdr3 (UniProt P33200)
T1 sequence: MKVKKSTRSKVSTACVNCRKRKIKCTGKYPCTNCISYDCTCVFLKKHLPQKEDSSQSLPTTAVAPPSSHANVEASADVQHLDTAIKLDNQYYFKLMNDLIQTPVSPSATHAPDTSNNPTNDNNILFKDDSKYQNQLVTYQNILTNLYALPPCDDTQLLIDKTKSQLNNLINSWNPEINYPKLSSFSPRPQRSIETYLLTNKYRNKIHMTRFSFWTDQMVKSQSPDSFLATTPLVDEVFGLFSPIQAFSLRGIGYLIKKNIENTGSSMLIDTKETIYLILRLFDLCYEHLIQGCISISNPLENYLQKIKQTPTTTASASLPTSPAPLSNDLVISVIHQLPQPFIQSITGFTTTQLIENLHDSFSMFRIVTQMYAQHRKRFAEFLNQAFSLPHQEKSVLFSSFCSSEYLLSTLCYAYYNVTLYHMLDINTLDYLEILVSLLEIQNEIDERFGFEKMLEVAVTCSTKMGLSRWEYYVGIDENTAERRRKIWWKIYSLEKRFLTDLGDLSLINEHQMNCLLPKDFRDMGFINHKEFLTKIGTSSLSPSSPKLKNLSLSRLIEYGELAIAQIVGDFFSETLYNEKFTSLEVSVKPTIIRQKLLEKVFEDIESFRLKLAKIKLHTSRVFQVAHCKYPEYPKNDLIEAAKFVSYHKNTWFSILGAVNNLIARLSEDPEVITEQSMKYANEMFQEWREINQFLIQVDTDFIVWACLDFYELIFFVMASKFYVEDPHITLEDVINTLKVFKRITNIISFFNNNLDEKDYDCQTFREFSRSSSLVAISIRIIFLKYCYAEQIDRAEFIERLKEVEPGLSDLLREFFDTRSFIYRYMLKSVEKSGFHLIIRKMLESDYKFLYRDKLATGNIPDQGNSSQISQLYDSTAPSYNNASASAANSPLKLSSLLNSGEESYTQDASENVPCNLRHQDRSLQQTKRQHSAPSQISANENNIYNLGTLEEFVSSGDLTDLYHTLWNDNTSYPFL
Test: PBM E-score (8-mer binding enrichment) (E-score (-0.5 to 0.5)); higher = stronger / more preferred TF binding; most listed sequences are background and not binding sites
Details: protein concentration: 200 nM; construct: GST-full length
Method in brief: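 GST-tagged yeast TFs (full-length or DNA-binding domain) were made by PURExpress in vitro transcription/translation and applied at about 100-200 nM to universal all-10-mer Agilent arrays. The arrays were made double-stranded by primer extension, on fresh or once-stripped slides. Bound protein was detected with fluorescent anti-GST, and scans were normalised with masliner. Each ungapped eight-base word, pooled with its reverse complement, received an E-score (modified Wilcoxon-Mann-Whitney statistic) from the Universal PBM Analysis Suite.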

Sequence	PBM E-score
AACTTGCT	-0.142
TATTCCGA	0.407
ACCTGGAG	-0.144
TACTGCAA	-0.14
ATCACGGC	0.218
GTTCCTGA	-0.0384
AGTGACGC	0.044
AATATGAT	0.108
CGCTTTTA	0.036
ACGATCGA	-0.0056
AGTGCAGC	0.0987
GCTTAACC	-0.222
AACCACTA	-0.242
GGACGGGA	0.192
GAGTAAGA	0.0199
CCGTCTCG	0.19
GTGCCGGA	0.369
CTAGAGGC	-0.289
GCGCGTGA	0.109
AAAACCAC	-0.113
GGGTACAC	-0.139
CTCCATAC	-0.00794

Sequence	PBM E-score
ACACTAGG	-0.0887
GACGCTTA	-0.16
GGCACGGA	0.314
CCTCTCTA	-0.295
CTCTTGTA	-0.113
GCTCCAGC	0.0267
AGTCGTAA	-0.0371
GCCACGGC	0.0607
GGGAGCAA	-0.0166
GAAGCTCC	0.219
CCCAAGCA	-0.0736
CATACAGC	-0.205
GGTAAAAA	0.0643
GCTAAAGA	0.00571
TCTGATAA	-0.0999
TATCCAAA	-0.0382
AAGGACAC	-0.105
ACTGTCGC	0.0823
CACGCGGC	-0.00292
CAATACTC	0.0114
ATGAGCTC	0.0143
CGATGGGC	0.00151

Sequence	PBM E-score
CTCTGTTC	0.0293
CTAGAAAA	-0.105
GGATAATA	0.233
AAAGATTC	-0.0526
AAGGTGAC	-0.155
GTCGCAAC	0.0702
CTAACATA	-0.0761
GGCTTCGA	-0.0956
CACAAAGA	-0.149
ACGTAGAT	-0.068
AGGACCAC	-0.0788
GATTCCAC	0.19
GTCCTTTA	-0.0651
GGCGGGAC	0.295
ACCTCGTC	-0.0246
CGCGCCAG	0.11
GTGCCTCA	-0.148
GGTGGAAA	-0.048
CACGGCGC	0.222
CAGTAGAC	-0.109
GAATTAAC	-0.0501
GGTGGTTA	0.058

Sequence	PBM E-score
CTGGTTGC	0.152
AACACAGA	-0.088
AAAATTGG	-0.0852
GGGCTCGA	-0.161
CCGTTGTC	0.284
ACGGCTAT	0.0518
GAGCCTCA	-0.109
GGTTGCAC	0.00641
GCCGGAAA	0.42
TAGTCACA	-0.127
CTAAGGAG	-0.254
CCCGTATC	0.146
CCCCCGAA	-0.0602
CATCCTAC	-0.0647
AGCCACTG	0.0181
GAATCTAA	0.0898
AGCTGGCC	0.0998
GATAGGGC	0.0824
GCGATTTA	0.0969
AAAGGAAT	0.0349
